The other results are listed elsewhere or left out. At the low end of the ranking, values are background and their order means little.

This test addresses SIX1 homeodomain (reference allele) (UniProt Q15475). Put plainly: universal protein binding microarray. The note with it: Universal all-10-mer PBM (8x60K, AMADID 030236), 300 nM GST-tagged protein, Alexa Fluor 488 anti-GST; buffer, salt, pH and temperature not stated; high values mean tight binding; most listed sequences are background and not binding sites; double strand, one strand shown.
For the sequence ATGGCAGG, the binding signal is -0.153 E-score.
With AAGGCGAT, the binding signal is 0.135 E-score.
As for AGCGGGAC, the binding signal is -0.289 E-score.
As for AATCCAAT, the figure is 0.023 E-score; as for GCAATAAA, -0.138 E-score.
With CGCCCTAG the figure was 0.00937 E-score.
With ACTCTCCT the figure was -0.00755 E-score; with ACCACATC, -0.0285 E-score.
Regarding AAACCCGG, the binding signal amounted to 0.163 E-score.
CTGTCAAA: the binding signal was -0.236 E-score.
As for TATTTAGA, the figure is 0.131 E-score.
With ATAGAATC the figure was -0.00212 E-score.
With ATGGCGAA the figure was -0.173 E-score; with ATGGACAA, -0.144 E-score; with ACACGTCT, 0.0928 E-score.
Take CGACCTAC: the binding signal was -0.122 E-score.
Take GAGATGAC: the binding signal was -0.016 E-score.
As for AGAGAATA, the figure is -0.0147 E-score; as for GCACCCTA, 0.086 E-score.
Regarding CCACTACG, the binding signal was -0.135 E-score.
As for ATTCGTCA, the figure is -0.0295 E-score.
As to AAAGACCC, the binding signal was -0.0854 E-score.
Consider GATGCGCC, for which the binding signal was -0.0391 E-score.
Take CCTAGTCA: the binding signal is -0.229 E-score.
Consider ATCTTTTG, for which the binding signal amounted to 0.0815 E-score.
Consider ACCTGACT, for which the binding signal is -0.0751 E-score.
On to AAATGCAT, for which the binding signal is -0.126 E-score.
With GTCTCGTA, the binding signal came to 0.172 E-score.
With CTCCTTGA, the binding signal is -0.0249 E-score.
With CGACTGCA the figure was -0.194 E-score; with GAACTAGA, 0.0845 E-score.
As for CCCAGCTA, the figure is -0.021 E-score.
As to ATGTAGAG, the binding signal is -0.027 E-score.
With ATGTCATG the figure was -0.0473 E-score; with GCACATCC, -0.182 E-score.
As for CGTGGTAC, the figure is 0.0106 E-score.
In the case of AGTAAAAA, the binding signal is -0.116 E-score.
In the case of ACGTCATC, the binding signal is 0.00519 E-score.
As for CACAAATA, the figure is -0.0694 E-score; as for GATATTTA, 0.157 E-score.
As for GGGATTAC, the figure is 0.167 E-score; as for ATTTTATG, 0.0323 E-score.
Regarding CGACTCTA, the binding signal was -0.0463 E-score.
As for AGTTACCG, the figure is -0.175 E-score; as for CTCTTTGC, -0.255 E-score.
With AAAGCCGA the figure was -0.202 E-score.
With CGCAGACG the figure was -0.0639 E-score; with CTGTAAGC, -0.141 E-score.
Turning to CTATTTTA, the binding signal is -0.00639 E-score.
With ATTAGGCA the figure was -0.0243 E-score; with GAGCGCCC, -0.211 E-score; with TATACACA, 0.263 E-score.
On to GCTAGTAA, for which the binding signal is -0.0483 E-score.
CTTTCAAC: the binding signal was -0.247 E-score.
As for AAATCATC, the figure is -0.0771 E-score; as for ACGGGGAA, -0.0663 E-score; as for TACTAGGA, 0.0517 E-score.
As to CATCATCC, the binding signal is -0.028 E-score.
As for CGGTATGA, the figure is 0.225 E-score; as for AAATGAAT, -0.116 E-score; as for CTTGCCTC, -0.124 E-score.
Turning to ACTTCTGC, the binding signal is -0.128 E-score.
As for ACCGATCC, the figure is 0.382 E-score; as for TGTTACAA, -0.01 E-score; as for TATCTGAA, 0.153 E-score.
For the sequence TCGGATAA, the binding signal was determined as 0.336 E-score.
TAGTTCAA: the binding signal was -0.375 E-score.
With GCTCTGCC the figure was -0.238 E-score.
As for AGCGTGAG, the binding signal was -0.189 E-score.
As for GTCATTAA, the figure is 0.0474 E-score; as for GCCTGCTA, 0.0147 E-score; as for AACCGGTT, 0.0568 E-score.
As for TGAATGCA, the figure is -0.118 E-score; as for GTTCTTTA, -0.245 E-score; as for CAGCTAGG, 0.035 E-score.
Turning to CACTGTGC, the binding signal is -0.1 E-score.
As for ACGGTGGA, the figure is 0.0277 E-score; as for AAGTGCCC, -0.319 E-score.
As for AGGCCTAA, the figure is -0.0905 E-score.
As for GCGTCATA, the figure is 0.0247 E-score; as for GTACAGGA, -0.104 E-score.
Regarding CTATTGCC, the binding signal was -0.0372 E-score.
For the sequence AGCAAGTA, the binding signal was -0.138 E-score.
As for GCGTGAAA, the binding signal was -0.0628 E-score.
As for TAGTATAA, the figure is 0.199 E-score.
As for GGCGCGGA, the figure is 0.129 E-score.
As for GCTTATGA, the binding signal was determined as 0.0935 E-score.
GCATCACA: the binding signal was found to be 0.0924 E-score.
As for CGTCTGAG, the figure is 0.0443 E-score; as for CGAGGACG, -0.0709 E-score; as for TCGTCTCA, 0.22 E-score.
As for AACTTAAA, the figure is -0.131 E-score; as for CGCCTACA, -0.196 E-score.
Regarding ACGTAAAT, the binding signal is -0.153 E-score.

For the origin of these results see paper PMC10668032.
